For 73 sequences, binding signal (log2 fold change) results are on record in publication PMC5892938.

The list shows a part of the results. At the low end of the ranking the order means little.

The experiment concerns the target GST-SBP-SLBP (stem-loop binding protein) (UniProt Q14493). Put plainly: targeted RNA Bind-n-Seq.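 Note: DESeq read counts versus GST-SBP nonspecific binding control pulldown.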 The settings on record: RBNS binding buffer: 25 mM Tris pH 7.5, 150 mM KCl, 3 mM MgCl2, 0.1% Tween, 0.5 mg/mL BSA, 1 mM DTT; 27 nM protein, 750 pM RNA pool; temperature not stated; high values mean tight binding.
On to “GGUCACGUCUCAAUCAACUCUCUAGAGGGGGGGAAAACCCCUUUGCCCUCACCGUCAACAGCUCGCAGUCAAG”, for which the binding signal (log2 fold change) amounted to 0.0176.
The figure for “GGUCACGUCUCAAUCAACUCCCUAGAGGGGGGGAAAACCCCUUUGCCCUCAAUCUCAACAGCUCGCAGUCAAG” is -0.439; for “GGUCACGUCUCAAUCAACUCUAUUCCCAGGGAAACCCCUGGCAUUUUCAACAGCUCGCAGUCAAG” it is 0.0207; for “GGUCACGUCUCAAUCAACUCAUUUCCAGGAGUUUGCUCCUGCAUUUUCAACAGCUCGCAGUCAAG” it is -0.059.
The figure for “GGUCACGUCUCAAUCAACUCAACUUCAGGAGUUUGCUCCUGUUAUCUCAACAGCUCGCAGUCAAG” is -0.0442; for “GGUCACGUCUCAAUCAACUCUUCUUCAGGAGUUUUCUCCUGCAUAUUCAACAGCUCGCAGUCAAG” it is 0.0186; for “GGUCACGUCUCAAUCAACUCAGUCCCCAGGGAAAGCCCUGGCAUAUUCAACAGCUCGCAGUCAAG” it is 0.34.
For the sequence “GGUCACGUCUCAAUCAACUCCACAGAGGGGGGGAAAACCCCUUUACCCUCCAAAUCAACAGCUCGCAGUCAAG”, the binding signal (log2 fold change) is -0.114.
The figure for “GGUCACGUCUCAAUCAACUCACUAGAGGGGGGGAAAACCCCUUUACCCUCCAUAUCAACAGCUCGCAGUCAAG” is -0.247; for “GGUCACGUCUCAAUCAACUCUUCCGAGGGGGGGAAAACCCCUUUACCCUCUUUUUCAACAGCUCGCAGUCAAG” it is 0.253.
For the sequence “GGUCACGUCUCAAUCAACUCUUCCCCCAGGGAAACCCCUGGCAUAUUCAACAGCUCGCAGUCAAG”, the binding signal (log2 fold change) is -0.0573.
The figure for “GGUCACGUCUCAAUCAACUCAUUCUCCAGGGAAAACCCUGGUAUUCUCAACAGCUCGCAGUCAAG” is 0.159; for “GGUCACGUCUCAAUCAACUCAUUCUCAGGAGUUUCCUCCUGCAAAUUCAACAGCUCGCAGUCAAG” it is 0.00261.
Take “GGUCACGUCUCAAUCAACUCUUUCCCCAGGGAAAGCCCUGGCAAAUUCAACAGCUCGCAGUCAAG”: the binding signal (log2 fold change) is 0.17.
The figure for “GGUCACGUCUCAAUCAACUCAAUCCCAGGAGUUUCCUCCUGUAAUGUCAACAGCUCGCAGUCAAG” is 0.0804.
Regarding “GGUCACGUCUCAAUCAACUCUACUCCCAGGGAAAUCCCUGGCAAAUUCAACAGCUCGCAGUCAAG”, the binding signal (log2 fold change) was 0.0336.
The figure for “GGUCACGUCUCAAUCAACUCUUUCGAGGGGGGGAAAACCCCUUUGCCCUCAACAUCAACAGCUCGCAGUCAAG” is -0.45; for “GGUCACGUCUCAAUCAACUCUCUAGAGGGGGGGAAAACCCCUUUACCCUCAUCGUCAACAGCUCGCAGUCAAG” it is -0.454; for “GGUCACGUCUCAAUCAACUCAAUUCCAGGAGUUUCCUCCUGUAUUUUCAACAGCUCGCAGUCAAG” it is 0.0487.
The figure for “GGUCACGUCUCAAUCAACUCAGUCCCCAGGGAAAACCCUGGCUUAUUCAACAGCUCGCAGUCAAG” is 0.209; for “GGUCACGUCUCAAUCAACUCUCUAGAGGGGGGGAAAACCCCUUUACCCUCCACAUCAACAGCUCGCAGUCAAG” it is -0.175; for “GGUCACGUCUCAAUCAACUCUUUCGAGGGGGGGAAAACCCCUUUACCCUCAUCCUCAACAGCUCGCAGUCAAG” it is 0.00394.
Regarding “GGUCACGUCUCAAUCAACUCCUUCGAGGGGGGGAAAACCCCUUUACCCUCCACAUCAACAGCUCGCAGUCAAG”, the binding signal (log2 fold change) worked out at 0.203.
“GGUCACGUCUCAAUCAACUCAUUCCCCAGGGAAACCCCUGGCAAUCUCAACAGCUCGCAGUCAAG”: the binding signal (log2 fold change) is -0.0169.
Regarding “GGUCACGUCUCAAUCAACUCUUUCGAGGGGGGGAAAACCCCUUUACCCUCACCAUCAACAGCUCGCAGUCAAG”, the binding signal (log2 fold change) came to 0.0225.
The figure for “GGUCACGUCUCAAUCAACUCAAUCUCAGGAGUUUUCUCCUGUUUAUUCAACAGCUCGCAGUCAAG” is 0.267.
Consider “GGUCACGUCUCAAUCAACUCAACUCCAGGAGUUUUCUCCUGUAAAUUCAACAGCUCGCAGUCAAG”, for which the binding signal (log2 fold change) is -0.0406.
As to “GGUCACGUCUCAAUCAACUCUAUAGAGGGGGGGAAAACCCCUUUGCCCUCCACUUCAACAGCUCGCAGUCAAG”, the binding signal (log2 fold change) turned out to be 0.0428.
As for “GGUCACGUCUCAAUCAACUCAUUUUCCAGGGAAAUCCCUGGCAGUCUCAACAGCUCGCAGUCAAG”, the binding signal (log2 fold change) was -0.143.
The figure for “GGUCACGUCUCAAUCAACUCUAUCCCCAGGGAAAACCCUGGCUUAUUCAACAGCUCGCAGUCAAG” is 0.154.
Regarding “GGUCACGUCUCAAUCAACUCUUCGUCCAGGGAAAUCCCUGGCAUUUUCAACAGCUCGCAGUCAAG”, the binding signal (log2 fold change) was -0.292.
The figure for “GGUCACGUCUCAAUCAACUCAUUUCCCAGGGAAAGCCCUGGUAUACUCAACAGCUCGCAGUCAAG” is -0.182; for “GGUCACGUCUCAAUCAACUCUACUCCCAGGGAAAACCCUGGCUUUCUCAACAGCUCGCAGUCAAG” it is -0.249.
The figure for “GGUCACGUCUCAAUCAACUCUACAGAGGGGGGGAAAACCCCUUUACCCUCAAUAUCAACAGCUCGCAGUCAAG” is -0.024.
The figure for “GGUCACGUCUCAAUCAACUCAAUCUCCAGGGAAAUCCCUGGCUUUUUCAACAGCUCGCAGUCAAG” is 0.0877; for “GGUCACGUCUCAAUCAACUCAUCCUCCAGGGAAAGCCCUGGUUUUUUCAACAGCUCGCAGUCAAG” it is -0.00839.
Turning to “GGUCACGUCUCAAUCAACUCAUUCCCCAGGGAAAUCCCUGGCUUUUUCAACAGCUCGCAGUCAAG”, the binding signal (log2 fold change) worked out at 0.278.
The figure for “GGUCACGUCUCAAUCAACUCCUUAGAGGGGGGGAAAACCCCUUUGCCCUCAACCUCAACAGCUCGCAGUCAAG” is 0.282; for “GGUCACGUCUCAAUCAACUCUCAAGAGGGGGGGAAAACCCCUUUACCCUCCGCAUCAACAGCUCGCAGUCAAG” it is 0.0833.
For “GGUCACGUCUCAAUCAACUCAAUCCCAGGAGUUUCCUCCUGUUUAUUCAACAGCUCGCAGUCAAG”, the binding signal (log2 fold change) was found to be 0.0208.
The figure for “GGUCACGUCUCAAUCAACUCUUCUUCCAGGGAAAACCCUGGCUUAUUCAACAGCUCGCAGUCAAG” is 0.0245; for “GGUCACGUCUCAAUCAACUCCUAAGAGGGGGGGAAAACCCCUUUGCCCUCCAUAUCAACAGCUCGCAGUCAAG” it is -0.233.
The figure for “GGUCACGUCUCAAUCAACUCAUCUCCAGGAGUUUCCUCCUGCAUACUCAACAGCUCGCAGUCAAG” is 0.323; for “GGUCACGUCUCAAUCAACUCAUCCUCCAGGGAAAGCCCUGGUAUAUUCAACAGCUCGCAGUCAAG” it is 0.0173; for “GGUCACGUCUCAAUCAACUCUUCCUCAGGAGUUUCCUCCUGCAAACUCAACAGCUCGCAGUCAAG” it is 0.173.
For the sequence “GGUCACGUCUCAAUCAACUCUUCCCCCAGGGAAAGCCCUGGCUAACUCAACAGCUCGCAGUCAAG”, the binding signal (log2 fold change) is -0.0482.
With “GGUCACGUCUCAAUCAACUCAACUCCCAGGGAAAACCCUGGUAUUUUCAACAGCUCGCAGUCAAG”, the binding signal (log2 fold change) is -0.0759.
On to “GGUCACGUCUCAAUCAACUCUUAAGAGGGGGGGAAAACCCCUUUACCCUCACCGUCAACAGCUCGCAGUCAAG”, for which the binding signal (log2 fold change) is -0.111.
The figure for “GGUCACGUCUCAAUCAACUCUACUUCAGGAGUUUCCUCCUGUUUACUCAACAGCUCGCAGUCAAG” is 0.169; for “GGUCACGUCUCAAUCAACUCAUCCUCCAGGGAAAGCCCUGGCUAACUCAACAGCUCGCAGUCAAG” it is 0.042; for “GGUCACGUCUCAAUCAACUCUACGCCAGGAGUUUUCUCCUGUUUUCUCAACAGCUCGCAGUCAAG” it is -0.138.
Regarding “GGUCACGUCUCAAUCAACUCACUAGAGGGGGGGAAAACCCCUUUGCCCUCCAAAUCAACAGCUCGCAGUCAAG”, the binding signal (log2 fold change) is 0.0344.
The figure for “GGUCACGUCUCAAUCAACUCUUUUUCAGGAGUUUCCUCCUGUUUUUUCAACAGCUCGCAGUCAAG” is 0.098.
The figure for “GGUCACGUCUCAAUCAACUCUAUCGAGGGGGGGAAAACCCCUUUACCCUCAAUUUCAACAGCUCGCAGUCAAG” is -0.0147.
Consider “GGUCACGUCUCAAUCAACUCUUUCCCCAGGGAAAGCCCUGGCAUUUUCAACAGCUCGCAGUCAAG”, for which the binding signal (log2 fold change) amounted to 0.178.
In the case of “GGUCACGUCUCAAUCAACUCAUCGUCAGGAGUUUCCUCCUGCUAACUCAACAGCUCGCAGUCAAG”, the binding signal (log2 fold change) is -0.0468.
The figure for “GGUCACGUCUCAAUCAACUCCAACGAGGGGGGGAAAACCCCUUUACCCUCAAUCUCAACAGCUCGCAGUCAAG” is -0.24; for “GGUCACGUCUCAAUCAACUCAUCGUCCAGGGAAAGCCCUGGUUAUCUCAACAGCUCGCAGUCAAG” it is 0.0909; for “GGUCACGUCUCAAUCAACUCUAACGAGGGGGGGAAAACCCCUUUACCCUCACCAUCAACAGCUCGCAGUCAAG” it is -0.237.
As for “GGUCACGUCUCAAUCAACUCUUCGUCCAGGGAAACCCCUGGUUUAUUCAACAGCUCGCAGUCAAG”, the binding signal (log2 fold change) was -0.315.
Consider “GGUCACGUCUCAAUCAACUCAACGCCAGGAGUUUCCUCCUGCUAAUUCAACAGCUCGCAGUCAAG”, for which the binding signal (log2 fold change) was 0.0297.
For “GGUCACGUCUCAAUCAACUCUAUCCCAGGAGUUUCCUCCUGCUUAUUCAACAGCUCGCAGUCAAG”, the binding signal (log2 fold change) worked out at 0.294.
With “GGUCACGUCUCAAUCAACUCUUACGAGGGGGGGAAAACCCCUUUACCCUCUACAUCAACAGCUCGCAGUCAAG”, the binding signal (log2 fold change) is -0.372.
“GGUCACGUCUCAAUCAACUCUAUUUCAGGAGUUUACUCCUGCAAUUUCAACAGCUCGCAGUCAAG”: the binding signal (log2 fold change) was determined as 0.0985.
The figure for “GGUCACGUCUCAAUCAACUCUUCUUCAGGAGUUUACUCCUGUAUACUCAACAGCUCGCAGUCAAG” is 0.117.
The figure for “GGUCACGUCUCAAUCAACUCAUUUUCCAGGGAAAGCCCUGGUAUACUCAACAGCUCGCAGUCAAG” is -0.0971.
The figure for “GGUCACGUCUCAAUCAACUCACACGAGGGGGGGAAAACCCCUUUACCCUCAGAAUCAACAGCUCGCAGUCAAG” is 0.0405; for “GGUCACGUCUCAAUCAACUCAAUUCCAGGAGUUUCCUCCUGCAUACUCAACAGCUCGCAGUCAAG” it is 0.13.
Consider “GGUCACGUCUCAAUCAACUCUUCGUCCAGGGAAAGCCCUGGCUUUUUCAACAGCUCGCAGUCAAG”, for which the binding signal (log2 fold change) was -0.0885.
For the sequence “GGUCACGUCUCAAUCAACUCCAUCGAGGGGGGGAAAACCCCUUUACCCUCAUUUUCAACAGCUCGCAGUCAAG”, the binding signal (log2 fold change) is -0.135.
The figure for “GGUCACGUCUCAAUCAACUCCAACGAGGGGGGGAAAACCCCUUUACCCUCAUAUUCAACAGCUCGCAGUCAAG” is -0.185; for “GGUCACGUCUCAAUCAACUCUUUCUCAGGAGUUUCCUCCUGUUAAUUCAACAGCUCGCAGUCAAG” it is -0.215.
The figure for “GGUCACGUCUCAAUCAACUCUACUCCCAGGGAAAUCCCUGGUAUUCUCAACAGCUCGCAGUCAAG” is 0.0166.
